Test results taken from article PMC6919601, “Identification of Plasmodium dipeptidyl aminopeptidase allosteric inhibitors by high throughput screening” (PLoS ONE, 2019).
Among all 110,000 compounds or so, about 230 (0.21%) showed an effect of 50% or more. Some of the results follow.

Target: DPAP1 (Plasmodium falciparum, UniProt Q8IIJ9)
Assay: primary screen, percent inhibition; read by cleavage of a fluorogenic dipeptide substrate; higher = more effect of the substance
Set-up: species or system P. falciparum D10 trophozoite lysates; single well
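Further: 30 min substrate incubation versus DMSO and 10 µM JCP410 controls.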

Sequence of DPAP1 (Q8IIJ9 whole entry, looked up): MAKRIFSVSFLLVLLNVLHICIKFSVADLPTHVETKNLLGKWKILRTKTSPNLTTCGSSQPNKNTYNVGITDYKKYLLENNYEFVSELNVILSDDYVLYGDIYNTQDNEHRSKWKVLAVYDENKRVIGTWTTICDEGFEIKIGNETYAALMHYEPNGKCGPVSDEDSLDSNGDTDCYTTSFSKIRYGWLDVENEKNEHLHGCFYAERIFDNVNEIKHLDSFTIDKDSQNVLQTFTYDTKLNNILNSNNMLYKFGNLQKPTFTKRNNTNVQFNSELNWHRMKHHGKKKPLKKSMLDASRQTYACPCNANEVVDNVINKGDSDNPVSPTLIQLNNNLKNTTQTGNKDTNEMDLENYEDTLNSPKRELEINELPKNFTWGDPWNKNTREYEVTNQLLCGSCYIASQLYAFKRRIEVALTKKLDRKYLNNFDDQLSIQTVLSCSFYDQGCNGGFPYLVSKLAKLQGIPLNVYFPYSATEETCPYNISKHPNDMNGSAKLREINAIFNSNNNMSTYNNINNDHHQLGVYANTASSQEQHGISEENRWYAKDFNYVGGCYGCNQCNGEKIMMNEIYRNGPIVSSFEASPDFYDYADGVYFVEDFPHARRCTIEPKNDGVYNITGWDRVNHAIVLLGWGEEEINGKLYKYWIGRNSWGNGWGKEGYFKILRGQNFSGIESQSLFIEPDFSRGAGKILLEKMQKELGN

| SMILES | % Inhibition @ 10 uM [%] |
| --- | --- |
| Oc1nc(-c2ccccc2)c2ccccc2n1 | 0.247 |
| c1ccc2c(CN3CCOCC3)csc2c1 | 20.5 |
| CCn1c(C(=O)N2CCCC(C(=O)NC3CCC(C)CC3)C2)cc2sccc21 (stereo not drawn) | -6.77 |
| CCCOC(=O)c1c(N)sc2c1CCC(C)C2 (stereo not drawn) | 33 |
| COc1cc(C2C(C#N)=C(N)N3C(=O)c4ccccc4SC3=C2C#N)cc(OC)c1OC (stereo not drawn) | -0.92 |
| COc1cccc(C2=NOC(C(=O)N3CCN(C(c4ccccc4)c4ccccc4)CC3)C2)c1OC (stereo not drawn) | 4.41 |
| COc1ccc(C)cc1NC(=O)CNS(=O)(=O)c1ccccc1 | 0.812 |
| COc1ccc(-c2onc(C)c2C)cc1S(=O)(=O)N1CCC(CN2CCc3ccccc3C2)CC1 | 5.98 |
| Cc1ccc(NC(=O)CN2C(=O)S/C(=C/c3ccncc3)C2=O)cc1 | 12.4 |
| CC(C)CC(=O)Nc1cccc(-c2cn3ccsc3n2)c1 | -0.587 |
| COc1ccc(CSc2nc(N)c3c4c(sc3n2)COC(C)(C)C4)cc1 | -0.386 |
| COC(=O)C1=CN(Cc2ccc(OC)c(OC)c2)C=C(C(=O)OC)C1c1ccccc1Cl | 0.219 |
| CCC(CC)COC(=O)C1=C(C)NC(=O)CC1c1cccc(Cl)c1 (stereo not drawn) | 8.46 |
| Cc1cc(Br)ccc1OCC(=O)N1CCCc2ccccc21 | -0.95 |
| COc1ccc(CN2CCC(Cc3ccccc3)CC2)cc1OC | 4.73 |
| O=C1c2ccccc2-c2nc3cc(Br)cnc3nc21 | -1.26 |
| c1cc2n(c1)CCNC2 | 4.73 |
| CCCc1c(O)nc(Nc2nc(C)c3cc(C)cc(C)c3n2)nc1O | 1.52 |
| COC(=O)c1cnn2c3c(c(C)nc12)CCCC3 | -2.14 |
| COCCNC(=O)c1ccc(CS(=O)(=O)c2ccc(OC)cc2)o1 | 2.14 |
| Cc1ccc(-n2c3c(c(=O)[nH]c2=O)C(NC(=O)CCc2ccccc2)(C(F)(F)F)C(=O)N3)cc1 (stereo not drawn) | 2.49 |
| COc1ccc(S(=O)(=O)N(Cc2ccccc2)C(C)C)cc1 | 0.247 |
| Oc1nc(N2CCOCC2)nc2ncn(Cc3ccccc3)c12 | -3.52 |
| CCOc1ccc(S(=O)(=O)N(CC(=O)N[C@@H]2C[C@H]3CC[C@@H]2C3)c2ccc(C)cc2)cc1 | 3.09 |
| O=C(C1=C(O)C(=O)N(c2nccs2)C1c1ccccc1F)c1ccccc1 (stereo not drawn) | -10.9 |

| SMILES | % Inhibition @ 10 uM [%] |
| --- | --- |
| Cc1cccn2c(=O)c3cc(C(=O)NCc4cccnc4)n(C)c3nc12 | 0.331 |
| CCCCNC(=O)CN1CCN(Cc2cccc(Cl)c2)C1=O | -4.16 |
| O=C(CCN1C(=O)c2ccccc2Sc2ncccc21)NC1CCCCCC1 | -4.76 |
| O=S(=O)(Cc1ccccc1Cl)N1CCOC(COc2ccccc2)C1 (stereo not drawn) | 0.895 |
| N#Cc1c(O)nc(O)c2c1CCN(Cc1ccccc1)C2 | 5.31 |
| COc1ccc(C2C(C#N)=C(N)OC3=C2C(=O)CC(C)(C)C3)cc1C (stereo not drawn) | -4.94 |
| CCCCN(CCCC)CCn1cnc2c3ccc(OC)cc3nc-2c1O | -0.0235 |
| O=C1/C(=C/c2ccco2)Cc2ccccc21 | 8.24 |
| O=C(CSc1nnc(-c2ccco2)o1)c1ccc(Br)cc1 | -8.04 |
| Cn1c(=O)[nH]c(=O)c2c1nc(Sc1nc3ccccc3[nH]1)n2CCCc1ccccc1 | 9.89 |
| COc1ccc(CCNCc2cc3ccc(C)cc3nc2O)cc1OC | -0.946 |
| CCN1C(=O)N/C(=C/c2ccc(N(C)C)cc2)C1=O | -21.3 |
| CCNC(=S)N1CCc2cc(OC)c(OC)cc2C1COc1ccc(OC)cc1 (stereo not drawn) | -0.363 |
| O=C(O)c1ccccc1C(=O)Nc1cc([N+](=O)[O-])ccc1Cl | -0.969 |
| CC1CC(C)CN(c2nc3c(c(=O)[nH]c(=O)n3C)n2CCSc2nc3ccccc3o2)C1 (stereo not drawn) | 2.06 |
| CC(C)C[C@H](NC(=O)c1nccc2ccccc12)C(=O)NCC#N | -5.64 |
| COc1ccc(OC)c(C2C3=C(O)CC(C)(C)CC3=Nc3nc(SC)nn32)c1 (stereo not drawn) | -11.1 |
| COc1ccc(N(CC(=O)Nc2cc(C)ccc2C)S(=O)(=O)c2ccccc2)cc1 | 0.324 |
| O=C(NCCCN1CCOCC1)c1cc(-c2ccc(Br)cc2)nc2ccccc12 | -1.1 |
| CC(C)(NC(=O)[C@H](CS(=O)(=O)Cc1ccccc1OC(F)F)NC(=O)N1CCOCC1)C(=O)c1nc2ncccc2o1 | -5.2 |
| c1coc(-c2nc3ccccc3nc2-c2ccco2)c1 | 3.32 |
| Cn1ncc(Cl)c1C(=O)NC12CC3CC(CC(C3)C1)C2 | -3.19 |
| COc1ccc2c(Sc3ccc(C)cc3)c(C(=O)NCCCOC(C)C)[nH]c2c1 | 3.39 |
| CCOc1ccc(CNCc2c(C(=O)O)c(C)n(Cc3ccccc3F)c2C)cc1 | -0.439 |
| CCOC(=O)c1[nH]c2ccccc2c1NC(=O)c1cc2ccccc2oc1=O | 2.17 |

| SMILES | % Inhibition @ 10 uM [%] |
| --- | --- |
| CCOC(=O)C1=C(C)N=c2s/c(=C\c3ccc(F)cc3)c(=O)n2C1c1ccccc1Cl (stereo not drawn) | -7.19 |
| CC(=O)c1c(CN(C)C23CC4CC(CC(C4)C2)C3)nc2n(Cc3ccccc3)c3ccccc3n12 | -4.11 |
| CCCCN(Cc1ccccc1)Cc1cc(OC)c(OC)cc1[N+](=O)[O-] | -3.57 |
| Cc1ccnc(NC(=O)Cn2cc(S(=O)(=O)N3CCCC3)c(S(=O)(=O)N3CCCC3)c2)c1 | -6.07 |
| O=C(c1ccccc1)N1CCN(c2nc3c(O)ncnc3[nH]2)CC1 | -5.11 |
| CN(C)c1ccc(C2=NN(c3ccc([N+](=O)[O-])cc3)C(c3ccccc3)C2)cc1 (stereo not drawn) | -5.96 |
| CCn1cc(C2=NOC(C(=O)NCc3ccccc3)C2)c(C)n1 (stereo not drawn) | -1.37 |
| Cc1ccc(CNC(=O)c2cnn3c(O)cc(CSc4ccc(Cl)cc4)nc23)cc1 | -5.8 |
| O=C(NCCN1CCOCC1)c1cc2nc(-c3ccccc3)cc(-c3ccccc3)n2n1 | 0.221 |
| CC(C)c1c(O)cc(-c2cccs2)n(-c2ccc(Cl)cc2)c1=O | 0.658 |
| Cc1cc(C)n(Cc2ccc(C(=O)NC(C)C3CC4CCC3C4)o2)n1 (stereo not drawn) | -4.06 |
| Cc1ccc(C2C(=O)N(C3CCCCC3)CC(=O)N2C2CCCCC2)cc1 (stereo not drawn) | -2.14 |
| Cc1ccccc1NC(=O)CSc1ncccn1 | 0.992 |
| CCOC(=O)C1=C(N)Oc2cc(O)ccc2C1c1ccc(F)cc1F (stereo not drawn) | 4.97 |
| Cc1ccc2oc(=O)c3cc(C(=O)Nc4cnc5ccccc5c4)sc3c2c1 | 1.66 |
| CC(C)C[C@H](NC(=O)c1cc(-c2ccccc2)c(Cl)s1)C(=O)NCC#N | 1.35 |
| COc1ccccc1C(=O)Nc1nc2c(C)cccc2s1 | 5.04 |
| Cc1ccc2nc(Cl)c3nnnn3c2c1 | 1.86 |
| OC(COc1ccccc1Cl)CN1CCN(CC(O)COc2ccccc2Cl)CC1 (stereo not drawn) | 0.131 |
| CC1(C)Cc2c(sc3[nH]c(=S)[nH]c(=O)c23)CO1 | 8.27 |
| O=C1c2cccc3cccc(c23)C(=O)N1c1nc2c(ccc3ccccc32)s1 | 3.6 |
| NC(=O)CSc1nc2ncccc2c(=O)n1Cc1ccccc1 | -5.27 |
| Cc1c(CNC2CCCC2)c(C(=O)O)c(C)n1Cc1ccc(F)cc1Cl | -1.92 |
| CCOCCCNC(=O)Cn1ncc2c(C)n(Cc3ccc(C)cc3)c(C)c2c1=O | -0.447 |
| CCOC(=O)N1CCC(NC(=O)CNC(=O)c2ccco2)CC1 | -4.62 |

| SMILES | % Inhibition @ 10 uM [%] |
| --- | --- |
| O=C(NCCc1nc2ccccc2[nH]1)c1ccc(Cl)cc1Cl | 5.7 |
| COC(=O)c1ccc(COc2ccc(Cl)c(C)c2)o1 | -1.33 |
| CCC(C)(C)NC(=O)c1cc(-c2ccc(Br)cc2)[nH]n1 | 8.59 |
| Cc1ccc(Cn2c(=O)c3c(nc(NCCO)n3C)n(C)c2=O)cc1 | -3.24 |
| CCO/C(O)=C1/C(C)=NC(=S)NC1c1ccc([N+](=O)[O-])cc1 (stereo not drawn) | -0.261 |
| COC(=O)c1sccc1NC(=O)c1cccc2c1SCCC2=O | 3.17 |
| CCOc1c(OC)cccc1C1C(C#N)=C(N)Oc2[nH]nc(-c3ccccn3)c21 (stereo not drawn) | 2.67 |
| Cc1ccc(OCC(=O)NCc2ccccc2)c(Br)c1 | 1.27 |
| COc1ccc(CCNC(=O)c2sc3nc(-c4ccc(OC)cc4)ccc3c2N)cc1 | -1.11 |
| COc1cc(C(=O)NCCC(=O)NC(C)C)cc(OC)c1OC | -0.519 |
| CCOC(=O)c1c(-n2ncnc2-c2ccncc2)sc2c1CCCC2 | 4.74 |
| CN(CC(=O)NC1CCCC1)S(=O)(=O)c1ccc2[nH]c3c(c2c1)CCCC3 | -2.77 |
| CCN1CCN(C(=O)c2sc3cc(Cl)ccc3c2Cl)CC1 | -2.88 |
| Cc1cc(-c2ccc(N)cc2)nc2ccc3ccccc3c12 | 52.7 |
| Cc1ccc(OCC(=O)N2CCC(C)CC2)cc1C | 4.27 |
| Cc1ccc(C2C3=C(CC(C)(C)CC3=O)N(CCO)C3=C2C(=O)CC(C)(C)C3)cc1 | 1.91 |
| O=C1C2C3CCC(C3)C2C(=O)N1c1ccc(Br)cc1 (stereo not drawn) | -5.98 |
| O=C(NC1CC1)c1ccc(CSc2nc3cccnc3n2Cc2cccc(F)c2)cc1 | 5.62 |
| CC(O)(C(=O)O)c1cccc2c1sc1ccccc12 (stereo not drawn) | -4.72 |
| COc1ccc(CNC(=O)c2sc3nc4c(c(C(F)(F)F)c3c2N)CCC4)cc1OC | 3.93 |
| Cc1ccc(S(=O)(=O)N(CC(=O)Nc2ccc3c(c2)OCO3)c2ccc(C)cc2C)cc1 | 1.62 |
| CC(CCN1CCN(CCO)CC1)c1ccccc1 (stereo not drawn) | -5.42 |
| C(#Cc1ccccc1)CN1CCN(C/C=C/c2ccccc2)CC1 | -1.72 |
| Cc1c(C)n(C)c2ccc(C(=O)N3CCC4(CC3)OCCO4)cc12 | 0.399 |
